{"source": "ChEMBL document CHEMBL4888484", "about": "“Replenishing the malaria drug discovery pipeline: Screening and hit evaluation of the MMV Hit Generation Library 1 (HGL1) against asexual blood stage Plasmodium falciparum ,using a nano luciferase reporter read-out” (2022)", "note": "In all, about 4,800 compounds went through this assay and about 410 (8.5%) showed an effect of 50% or more. Some of the results follow.", "data": [{"system": "Plasmodium falciparum", "assay": "Confirmatory screen in NF54 pLDH assay, in single point, at 2uM, 72h", "type": "functional, Erythrocyte", "conditions": "timepoint 72 hour", "units": {"% Inhibition": "%"}, "values": [{"compound": "Cc1ccc2c(c1)nc(-n1nc(C)cc1C)c1nnnn12", "% Inhibition": 6}, {"compound": "C[C@H]1CCCN(c2nc3ncn(CC(=O)Nc4ccccc4C(F)(F)F)c(=O)c3s2)C1", "% Inhibition": -8}, {"compound": "Cc1nn(-c2nc3ccccc3[nH]2)c(O)c1CCC(C)C", "% Inhibition": 68}, {"compound": "Cc1cccc(NS(=O)(=O)c2ccc3c(c2)Cc2cc(S(=O)(=O)Nc4cccc(C)c4)ccc2-3)c1", "% Inhibition": 11}, {"compound": "Cc1ccc(C(=O)N2C[C@@H]3C[C@H](NC(=O)c4cccnc4)[C@H]2C3)cc1F", "% Inhibition": -1}, {"compound": "O=C(NC1CC1C1CCCCC1)N1CCS(=O)(=O)CC1", "note": "(stereo not given)", "% Inhibition": -4}, {"compound": "Oc1ccc(C2=C(c3ccccc3)N=NCN2O)c(O)c1", "% Inhibition": -12}, {"compound": "CCCNC(=O)O[C@@H]1CC[C@]2(C)C(CC[C@@H](O)[C@H]2CC(=O)N2CCC(C)CC2)[C@]1(C)CO", "note": "(stereo not given in full)", "% Inhibition": 8}, {"compound": "CN1C(=O)[C@@H]2CCCCN2c2ccc(C(=O)NCCN3CCN(c4ccccc4F)CC3)cc21", "% Inhibition": 7}, {"compound": "COc1ccc(-n2nc(C)c3c2NC(=O)C[C@@H]3c2ccccc2OCC(C)C)nn1", "% Inhibition": -1}, {"compound": "N[C@H]1C[C@@H](c2cc(N3CCN(C4CCCCC4)CC3)nc(N3CCCC3)n2)C1", "% Inhibition": 50}, {"compound": "Cn1nc(C(=O)NC2CCCCC2)cc1C(=O)NC1CCCCC1", "% Inhibition": 12}, {"compound": "CCOC(=O)c1ccc2[nH]cnc2c1NC(C)=O", "% Inhibition": 5}, {"compound": "CCc1ccc(NC(=O)c2c(C)sc3ncnc(N4CCCCC4)c23)cc1", "% Inhibition": 12}, {"compound": "CC(C)[C@H](OC(=O)n1ccnc1)C(=O)OC(C)(C)C", "% Inhibition": -16}, {"compound": "COc1ccccc1N1CCN(CC(=O)Nc2c3c(nc4ccccc24)N(c2cccc(C)c2)CC3)CC1", "% Inhibition": -24}, {"compound": "Cc1ccc(NC(=O)CC2CCOCC2)cc1F", "% Inhibition": -17}, {"compound": "Cc1[nH]c2ccccc2c1C1CCN(C(=O)c2ccc(Br)cc2O)CC1", "% Inhibition": -7}, {"compound": "O=C(O)c1cc2c(cc1C(=O)Nc1ccc(Cl)cc1)=[O+]c1ccccc1-c1ccccc1[O+]=2", "% Inhibition": -8}, {"compound": "Nc1nc(C2CC(N)C2)cc(N2CCC(Oc3ccccc3Cl)CC2)n1", "note": "(stereo not given)", "% Inhibition": 65}, {"compound": "Nc1cc(Cl)c(C(F)(F)F)cc1N", "% Inhibition": 10}, {"compound": "Oc1ccc(-c2ncc3n2CCCC3)cc1", "% Inhibition": 11}, {"compound": "CC(=O)N1CCC(Nc2ccc3c(c2)CCC(=O)N3)CC1", "% Inhibition": -7}, {"compound": "Fc1cnc(OC2Cc3ccccc3C2)nc1", "% Inhibition": 57}, {"compound": "O=C(ON1C(=O)CCC1=O)c1cc2ccccc2[nH]1", "% Inhibition": 9}, {"compound": "O=C(NCCC1=CCOCC1)c1cnc2ccccn12", "% Inhibition": -2}, {"compound": "O=c1[nH]c2ccccc2c(NCc2ccccc2)c1N1CCN(c2ccccc2)CC1", "% Inhibition": 1}, {"compound": "O=C(CCc1nc(-c2cccc(F)c2)no1)NCc1ccc2c(c1)OCO2", "% Inhibition": 11}, {"compound": "O=C(Nc1ccc(-n2cncn2)cn1)c1cscn1", "% Inhibition": -14}, {"compound": "CCNC(=O)c1nc(-c2ccncc2)cs1", "% Inhibition": -16}, {"compound": "O=C(N[C@H]1CCOC1=O)OCc1ccccc1", "% Inhibition": -4}, {"compound": "CN1CCN(CC2(O)CCN(S(=O)(=O)c3ccc(Cl)cc3)CC2)CC1", "% Inhibition": -17}, {"compound": "O=C(Cc1c[nH]c2ccccc12)NC1(C(=O)NC2CCCC2)CCCCC1", "% Inhibition": 8}, {"compound": "Cc1cc2[nH]ncc2cc1NC(=O)c1ccco1", "% Inhibition": 9}, {"compound": "COc1cc(CNCc2cccs2)ccc1OCc1ccccc1C", "% Inhibition": 5}, {"compound": "Cc1ccc(-c2nc3c(c(=O)n2CC(=O)NC[C@H]2CCCO2)CCN(Cc2ccccc2)C3)cc1", "% Inhibition": -28}, {"compound": "CCNC(=O)CNC(=O)Nc1cnn(C(C)C)c1", "% Inhibition": 7}, {"compound": "C[C@@H](C(=O)NCCN1CCCCC1)N1C(=O)COc2ccc(C(=O)COc3ccc(Cl)cc3)cc21", "% Inhibition": -9}, {"compound": "O=C(C[C@H]1CCN(S(=O)(=O)c2ccc(F)cc2F)C1)NCc1ccccc1", "% Inhibition": 10}, {"compound": "O=c1cc2c(nn1Cc1cccc(Cl)c1)-c1ccccc1CC2", "% Inhibition": 1}, {"compound": "COc1ccc(CNc2nc(-c3nnc(-c4ccccc4)o3)nc3ccccc23)cc1", "% Inhibition": -3}, {"compound": "CS(=O)(=O)N(CCCC(=O)NCc1ccc2c(c1)OCO2)c1ccc(F)cc1", "% Inhibition": 11}, {"compound": "Cn1ncnc1CNC(=O)NCC1(Cc2ccccc2)CCC1", "% Inhibition": -2}, {"compound": "O=C1C2CCCCC2C(=O)N1c1cnn(Cc2cccc3ccccc23)c1", "note": "(stereo not given)", "% Inhibition": 10}, {"compound": "COc1ccc(-c2cc3nc(C)cc(N4CCN(C/C=C/c5ccccc5)CC4)n3n2)cc1OC", "% Inhibition": 37}, {"compound": "Cc1nc(O)ccc1C(=O)N[C@H](c1ccc(Cl)cc1)c1ncon1", "% Inhibition": -5}, {"compound": "CCn1nc(C)c(C(=O)Nc2cn(C)nc2C(N)=O)c1C", "% Inhibition": -14}, {"compound": "COc1cc(C(=O)NC2CC(C)(C)NC(C)(C)C2)ccc1OCc1ccccc1Cl", "% Inhibition": 11}, {"compound": "Oc1ccccc1CNc1cccc2cccnc12", "% Inhibition": 97}, {"compound": "Cc1c(S(=O)(=O)NCc2cc3c(s2)CCCC3)cnn1C", "% Inhibition": 11}, {"compound": "Cc1nc2cc(NC(=O)c3cccs3)ccc2o1", "% Inhibition": -5}, {"compound": "CCOc1cc(CNC2CCCCC2)cc(Cl)c1OCc1ccc(C)cc1", "% Inhibition": -4}, {"compound": "O=c1[nH]cnc2c1nc(N1CCCCC1)n2C1OC(CO)C(O)C1O", "note": "(stereo not given)", "% Inhibition": 3}, {"compound": "O=C(C[C@@H]1C(=O)Nc2nc(N3CCOCC3)[nH]c(=O)c21)Nc1ccc(Cl)cc1", "% Inhibition": 4}, {"compound": "Cc1cc(CN(C)C[C@@H]2C[C@H]2c2ccccc2)no1", "% Inhibition": 1}, {"compound": "O=C(Nc1ccc(F)cc1)c1c(O)c2cccc3c2n(c1=O)CC3", "% Inhibition": -20}, {"compound": "Cc1ccccc1NC(=O)N1CCN(C(=O)c2nonc2N)CC1", "% Inhibition": -17}, {"compound": "CCn1cc(Cl)c(C(=O)N2N=C3/C(=C/c4ccc(C)cc4)CCCC3C2c2ccc(C)cc2)n1", "note": "(stereo not given)", "% Inhibition": 6}, {"compound": "O=C(NCc1ccco1)[C@H]1CCCN(c2nc3ccccc3n(Cc3ccccc3)c2=O)C1", "% Inhibition": 9}, {"compound": "O=C(CNC(=O)[C@H]1CC[C@H](CNS(=O)(=O)c2ccccc2)CC1)N1CCN(c2ccccc2)CC1", "% Inhibition": 14}, {"compound": "COc1cccc(-c2cn(C)c3c(=O)n(CC(=O)Nc4ccccc4Cl)cnc23)c1", "% Inhibition": -4}, {"compound": "COCCN(CC1CN(Cc2ccccc2OC)CC1c1ccccc1OC)C(=O)COC", "note": "(stereo not given)", "% Inhibition": 0}, {"compound": "CCC(C)(C)C(=O)NCC1CCN(S(=O)(=O)C(F)F)CC1", "% Inhibition": -6}, {"compound": "COC(=O)[C@H](C)N(C(=O)CO)c1c(C)cccc1C", "% Inhibition": 10}, {"compound": "COC(=O)c1nccc(N2CCc3ccccc3C2)n1", "% Inhibition": -5}, {"compound": "COc1ccc2nc(N3CN(Cc4ccccc4)CN(c4nc5ccc(OC)cc5s4)C3)sc2c1", "% Inhibition": 1}, {"compound": "FC(F)(F)c1cnc(Cc2ccc(OC[C@H]3CC3(Cl)Cl)cc2)c(Cl)c1", "% Inhibition": 11}, {"compound": "Cc1ccc(NC(=O)N2CC(c3nc(C(C)C)nn3C)C2)cc1F", "% Inhibition": -1}, {"compound": "CCNC(=O)CN(CC)C(=O)COc1ccc(Cl)c(C)c1", "% Inhibition": 7}, {"compound": "CC(C)(C)NC(=O)N[C@H]1COc2c1ccc(Cl)c2Cl", "% Inhibition": -3}, {"compound": "Cc1cc(C)c(N2CCC(NC(=O)C(C)n3cncn3)C2=O)c(C)c1", "note": "(stereo not given)", "% Inhibition": 12}, {"compound": "O=S(=O)(c1ccccc1)N1CCC(Nc2ccc(Br)cc2)CC1", "% Inhibition": 12}, {"compound": "Cc1cnn(CC(=O)NC[C@]2(N3CCOCC3)CCOC2)c1", "% Inhibition": -9}, {"compound": "Cn1nccc1CS(=O)(=O)c1ccc(F)c(F)c1", "% Inhibition": -5}, {"compound": "CC(C)(NC(=O)CC1CCC(F)(F)CC1)c1nc2ccccc2s1", "% Inhibition": 8}, {"compound": "Cc1ccc(C)c(NC(=O)CC(=O)O)c1", "% Inhibition": -8}, {"compound": "C1=CCC(c2nc(-c3cnccn3)no2)C1", "% Inhibition": -2}, {"compound": "Cc1cc(C(=O)NCc2cnn(C)c2C)nc(N2CCOCC2)n1", "% Inhibition": 10}, {"compound": "CCC(=O)N1CCc2sc(C(=O)NC3CCN(Cc4ccccc4)CC3)cc2C1", "% Inhibition": 3}, {"compound": "Cc1ccc(F)cc1NC(=O)N1CCC12CCC2", "% Inhibition": 11}, {"compound": "CCN1c2cc(C(=O)NCc3ccccc3)ccc2C(=O)N2CCCC[C@H]21", "% Inhibition": 7}, {"compound": "Cc1nnc(NS(=O)(=O)c2c(C)sc3ccccc23)s1", "% Inhibition": 7}, {"compound": "Nc1c(Cl)cc(Cl)c(N)c1Cl", "% Inhibition": -20}, {"compound": "FCCn1ncnc1CN1CCCCC[C@H]1C1CCCCC1", "% Inhibition": -6}, {"compound": "Cc1ccc(NC(=O)c2ccc3c(-c4ccccc4)onc3c2)cc1C", "% Inhibition": -11}, {"compound": "Cc1cc(C)n(S(=O)(=O)c2ccc3c(c2)OCCO3)n1", "% Inhibition": 7}, {"compound": "CC(C)(C)c1cc(N)c2ccccc2n1", "% Inhibition": -6}, {"compound": "O=C(O)c1csc(-c2csc(CCN3C(=O)c4ccccc4C3=O)n2)n1", "% Inhibition": 13}, {"compound": "O=C(COc1ccccc1)N1CC[C@H](c2nc(C3CCOCC3)no2)C1", "% Inhibition": 11}, {"compound": "Cc1ccc(Cn2c(=O)c(N3CCC[C@H](C(=O)NCCc4ccco4)C3)nc3ccccc32)cc1", "% Inhibition": 9}, {"compound": "CC1(C)C2OCCCC2C1(N)C(=O)Nc1cn[nH]c1", "note": "(stereo not given)", "% Inhibition": 10}, {"compound": "CC(CO)(CO)NC(=O)c1ccc(Br)cc1", "% Inhibition": 13}, {"compound": "Fc1cccc(F)c1-n1c(COc2ccc(Cl)cc2)csc1=S", "% Inhibition": -5}, {"compound": "COC(=O)[C@@H]1[C@@H](NC(=O)C2CCCC2)CCN1C(C)=O", "% Inhibition": 1}, {"compound": "C[C@H](C(=O)NCCc1ccccc1)C1CCOCC1", "% Inhibition": -1}, {"compound": "NC(=O)C1CCCCCC1NC(=O)c1nccnc1N", "note": "(stereo not given)", "% Inhibition": -7}, {"compound": "c1cncc(CN2CCN(C3CCCCCC3)CC2)c1", "% Inhibition": 12}, {"compound": "Cc1ccc(C(=O)Nc2ccc(N3CCN(CCC#N)CC3)cc2C(=O)O)cc1", "% Inhibition": -6}, {"compound": "N#CC(c1nc2ccccc2s1)c1nc2ccccc2s1", "% Inhibition": -5}, {"compound": "CCCNC(=O)c1cn2ccnc(-c3ccc(C)cc3)c2n1", "% Inhibition": 9}, {"compound": "O=C(c1sc2ccccc2c1Cl)n1nnc2ccccc21", "% Inhibition": 3}, {"compound": "O=C(Nc1ccc2c(c1)CNCC2)C1CC1c1ccc(F)c(F)c1", "note": "(stereo not given)", "% Inhibition": 15}, {"compound": "CCN(c1ccc(C(=O)N(C)C2(C#N)CCC2)cc1)C(C)C", "% Inhibition": 7}, {"compound": "COCc1cc2nn(CC(=O)Nc3ccc(F)cc3C)c(=O)n2c(-c2ccccc2)n1", "% Inhibition": -20}, {"compound": "CCOc1ccc(NC(=O)c2ccc3c(c2)N(CC)[C@@H]2CCCCN2C3=O)cc1", "% Inhibition": 10}]}]}
